Laboratory results reported in the supplement of paper PMC4166925.
± gives the standard deviation of the averaged measurements. The full ranking holds about 33,000 sequences; the median of “E-score (dimensionless, -0.5 to 0.5)” is about -0.049, and the highest 2% start at about 0.37. Some of the results follow.

What follows are sequences tested on T1, PmTbr T-box DNA-binding domain (GST fusion) (assay: PBM E-score of 8-mer (E-score (dimensionless, -0.5 to 0.5)); Tbr is Tbrain of the sea star Patiria miniata (Pm) or the sea urchin Strongylocentrotus purpuratus (Sp); higher = stronger binding preference; most listed sequences are background and not binding sites). Conditions: the construct has about 5 more residues each side.
T1 sequence: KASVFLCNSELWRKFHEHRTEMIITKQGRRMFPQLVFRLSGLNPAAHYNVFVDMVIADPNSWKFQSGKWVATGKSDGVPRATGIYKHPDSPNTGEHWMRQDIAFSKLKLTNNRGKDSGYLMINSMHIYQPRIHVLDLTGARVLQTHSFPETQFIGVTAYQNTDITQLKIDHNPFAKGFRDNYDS
Procedure, shortened: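 Universal Agilent oligonucleotide arrays, made double-stranded by primer extension, were incubated with 200 nM GST-fused Tbr T-box DNA-binding domain in PBS (pH 7.5). The protein was expressed in BL21 E. coli at 20 °C and purified by glutathione affinity chromatography. After scanning and quantification, the Universal PBM Analysis Suite assigned an enrichment E-score to each ungapped 8-mer, averaged over duplicate arrays.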

Sequence	PBM E-score of 8-mer
ACTGCAAA	0.0952 ± 0.041
ATACCTCG	0.0114 ± 0.062
CCTATCGC	0.187 ± 0.02
AAGCGGGC	-0.0761 ± 0.02
AGACGGCA	-0.0772 ± 0.0055
ATGGCGCC	0.203 ± 0.0063
AATCGCGA	0.3771 ± 0.0028
CCGATCCG	-0.094 ± 0.017
TATGTCAA	0.0912 ± 0.063
CCATAAGC	-0.0407 ± 0.022
AAGTCGCA	0.212 ± 0.027
GGCAAGGA	-0.282 ± 0.0094
CAGCACTG	-0.0103 ± 0.11
AAGAGAGC	-0.208 ± 0.015
CCGGTAAA	-0.185 ± 0.034
ACTCGACC	-0.0345 ± 0.015
ATAGATAA	-0.00945 ± 0.081
CACTGTAG	0.028 ± 0.029
GCCACAAC	0.0461 ± 0.015
CCACAGGC	-0.15 ± 0.021
AGAGCGCC	-0.0954 ± 0.008
AGTACCGA	-0.252 ± 0.042
ACGAGCCA	-0.209 ± 0.086
GATTGACC	-0.116 ± 0.056
AGCCATCG	0.06 ± 0.013

Sequence	PBM E-score of 8-mer
GACTGATC	-0.186 ± 0.015
AAGCCCGC	-0.0747 ± 0.018
AGTCTAAT	-0.0337 ± 0.044
GATTGACA	0.2436 ± 0.0011
AGGGTCTG	-0.153 ± 0.037
AGACATTC	-0.2 ± 0.025
CCAAAGAA	-0.26 ± 0.0045
CAGACCAG	-0.278 ± 0.029
CCTGTGCA	-0.107 ± 0.012
ATAACTTA	-0.0517 ± 0.069
GAGTTGTA	0.195 ± 0.049
CCCCGCCG	-0.053 ± 0.093
CGACTGAG	-0.253 ± 0.023
AGTGGAAT	-0.0212 ± 0.05
CATTAACA	0.313 ± 0.071
CCTAACGC	0.202 ± 0.033
CATCAGTA	-0.108 ± 0.086
AGCTGAAT	-0.0655 ± 0.049
AACCGAGG	-0.0449 ± 0.022
CGTTCCTC	-0.115 ± 0.035
CACTGTTA	0.177 ± 0.0082
ACCGCTGC	0.128 ± 0.0099
CATTGTAA	-0.115 ± 0.1
AACCGCAG	-0.134 ± 0.07
CATCATGA	-0.142 ± 0.079

Sequence	PBM E-score of 8-mer
ACGACTCC	-0.0669 ± 0.11
ACAGCTGC	0.221 ± 0.0035
ATAACCTG	0.0231 ± 0.018
ATGATTGA	0.123 ± 0.065
ACCACACA	0.21 ± 0.0081
CTGACCTA	-0.194 ± 0.079
GGAGGGCC	-0.274 ± 0.097
ATATGGTC	-0.17 ± 0.0095
CCACGCAC	0.0735 ± 0.062
CTCGCTTA	0.0115 ± 0.0016
ATCTGCCA	0.0208 ± 0.02
AAATTGTT	-0.0609 ± 0.041
TGACAACA	0.339 ± 0.019
ACTAGGCC	0.0616 ± 0.0072
AGAGGTGG	0.316 ± 0.0057
AGTAAAGG	-0.0214 ± 0.051
CACGCGAG	0.214 ± 0.024
GAGCAGAC	0.012 ± 0.017
CACATGCC	0.124 ± 0.0096
CTTGGGGA	-0.196 ± 0.039
ACTCGCAT	-0.0149 ± 0.006
CCGTAAGG	-0.0384 ± 0.0057
GTTAGATA	-0.00025 ± 0.026
GGAACCTA	-0.188 ± 0.0072
ACTGAATG	-0.2555 ± 0.0011

Sequence	PBM E-score of 8-mer
CGCCTACG	0.0961 ± 0.028
ATGAACGA	-0.242 ± 0.07
TGACCAAA	-0.0968 ± 0.0068
AATAATCT	-0.27 ± 0.02
ATTAGGCG	0.0226 ± 0.033
ATGACATC	-0.203 ± 0.053
CCCTAGGG	-0.16 ± 0.025
CACCTCAA	0.395 ± 0.022
CTTGCCAA	0.237 ± 0.054
TTCAGGAA	-0.129 ± 0.021
AAAGACCA	-0.114 ± 0.043
GGTGACGA	0.429 ± 0.013
CAGCTCCC	-0.1055 ± 0.00083
GAACCTCC	-0.127 ± 0.068
ATTAAACA	0.0958 ± 0.041
AATATCTA	-0.236 ± 0.055
CATCGATA	0.0386 ± 0.0093
CGCCGACG	0.0764 ± 0.03
ACACCCCC	0.379 ± 0.017
GGCGCCAC	0.3288 ± 0.0022
CAGCTTCC	-0.237 ± 0.013
GTGGGAAC	0.239 ± 0.009
AAAGTAAG	-0.0117 ± 0.0073
CATCGGGC	-0.0604 ± 0.041
TGGATACA	-0.223 ± 0.037

Sequence	PBM E-score of 8-mer
GCCAGCAA	-0.149 ± 0.1
CCCGTTGA	0.021 ± 0.11
GGCGGACC	-0.0519 ± 0.055
CTAAACAC	0.146 ± 0.053
ACGACTAA	-0.139 ± 0.0045
CACCTCAG	0.42 ± 0.0057
CAAGGCCA	-0.163 ± 0.013
CGTGAGGC	0.0784 ± 0.018
AGGGATCG	0.148 ± 0.033
ACCGCCCT	-0.289 ± 0.011
CAGATTGC	-0.0534 ± 0.016
GGCGGGAA	0.152 ± 0.011
ACGACTAT	-0.13 ± 0.011
CTCATCCC	-0.165 ± 0.079
ATTTAGTC	-0.0274 ± 0.052
GCCAACTA	0.147 ± 0.034
CGAAAAGC	0.155 ± 0.025
CCCGTGTC	0.0466 ± 0.02
CAGAGGAA	-0.0607 ± 0.042
CCATTCGC	0.226 ± 0.0074
TGTCGTAA	0.144 ± 0.0038
TCCAAGCA	-0.0365 ± 0.015
CACGGTCG	0.0491 ± 0.014
TCTAGGCA	-0.0224 ± 0.0097
CTGTCTAA	-0.0724 ± 0.019

Sequence	PBM E-score of 8-mer
GATTCCGC	-0.0571 ± 0.061
ATCGTAAC	-0.000505 ± 0.017
ACGGTGGG	-0.211 ± 0.015
CGGTACCG	-0.0712 ± 0.02
GGCTTTTA	-0.0878 ± 0.01
CGCGAGGA	0.168 ± 0.052
ACTTGTAA	0.0472 ± 0.082
AAATAAGC	-0.0171 ± 0.064
GCTGGTCC	-0.237 ± 0.01
AATATGTC	0.00194 ± 0.044
GATCCAGC	-0.0993 ± 0.012
ATTCTGGC	-0.0401 ± 0.049
AAAGAAAC	-0.173 ± 0.081
AAAAATCC	-0.12 ± 0.019
ATGAGCAC	-0.247 ± 0.061
ACGTGAAG	0.146 ± 0.054
CAGCGAGA	0.0222 ± 0.014
CCACGTAC	0.0376 ± 0.016
AGCTATAA	-0.182 ± 0.011
CGGGGAAG	-0.145 ± 0.087
ATCGTTCA	-0.357 ± 0.005
AGATATAA	-0.00705 ± 0.037
CTTTTTCA	0.0925 ± 0.056
CCAAGACC	-0.227 ± 0.013
CTAAAGAC	-0.178 ± 0.0032

Sequence	PBM E-score of 8-mer
CCCTAAGA	-0.208 ± 0.015
ACTGATTG	-0.106 ± 0.052
AACCTATT	-0.172 ± 0.056
AGGGAACG	0.0301 ± 0.15
TCAGTGAA	-0.0398 ± 0.015
ACCTGGCG	0.251 ± 0.049
ATCCACCC	0.0355 ± 0.035
CCATGATC	-0.0602 ± 0.011
CAACTGCC	0.164 ± 0.019
GGCCTAAC	-0.051 ± 0.039
GCTAGGGA	0.0212 ± 0.031
CGTTTGGA	-0.0261 ± 0.0032
CTTTGGCC	-0.27 ± 0.068
TAACCGGA	-0.0209 ± 0.062
CACTACAC	0.169 ± 0.044
AAGCTGCG	0.107 ± 0.0034
CGGGCATA	-0.213 ± 0.2
AATGAGAC	0.0183 ± 0.0044
TCAACCAA	-0.0965 ± 0.0019
GTGGTTCA	-0.0776 ± 0.029
ACCTTGAT	0.0787 ± 0.059
TGATGTAA	-0.0938 ± 0.03
